Results published in PubChem BioAssay AID1963576 (National Center for Advancing Translational Sciences (NCATS), 2024).
Out of some 46,000 compounds screened, about 60 (0.1%) were called active. About 3% were inconclusive and are not listed. The call rests on the fitted dose curve; in most records, active means well fitted inhibition curve with a large enough effect; inconclusive means small, poorly fitted or top-dose-only effect; inactive means no such curve, though single readings can be large or run the other way. This is one part of the list.

Assay: Primary qHTS assay for Inhibitors of ovarian cancer metastasis using an organotypic tumor microenvironment (TME) model. Further: nearly all actives have a fitted effect of over 65% in size.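 On activity change, negative = inhibition: plate controls were DMSO wells for no effect and tomatine positive control wells for full effect.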
Conditions: SKOV3ip1-GFP adhesion/invasion on 3D omental model, fluorescence; series mostly up to 45.8 µM; activity change, negative = inhibition: at the top concentration
How it was run: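 A 3D layer of primary human omental fibroblasts, mesothelial cells, fibronectin and collagen I, grown 48 hr, received SKOV3ip1-GFP cells in serum-free medium plus compounds at 0.36-46 umol/L. After 2 hr RT and 16 hr 37 C, fixed adherent GFP cells were counted; normalized to DMSO and tomatine.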

Activity change, negative = inhibition, inactive:
O=C(CSc1nnc2scc(-c3ccc(Cl)cc3)n12)Nc1cccc(C(F)(F)F)c1 19.6%
CCN1CCN(c2ncc3c(n2)CCN(Cc2sccc2C)C3)CC1 -2.21%
Cc1ccccc1NC(=O)C(=O)NCC1(c2ccccc2)CCCC1 3.88%
COc1ccc(Cl)cc1NC(=O)c1cnc(SC)nc1-c1ccccc1 7.64%
Cc1sc2ncn(CC(=O)N3CCN(c4ccccc4)CC3)c(=O)c2c1S(=O)(=O)N1CCN(c2ncccn2)CC1 20.1%
CN(CC(=O)Nc1ccc(Cl)cc1F)S(=O)(=O)c1ccc2c(c1)n(C)c(=O)c(=O)n2C -34.4%
CCc1ccc(C(c2ccccc2)c2c[nH]c3ccc(C)cc23)s1 (centres undefined) 3.81%
CCOC(=O)Cc1ccc(NC(=O)N2CCc3c(sc4c3CCCC4)C2c2ccc(F)cc2)cc1 (centres undefined) -11.2%
CC(C(=O)Nc1ccccc1C(F)(F)F)n1nnc2sc3c(c2c1=O)CCCC3 (centres undefined) -0.581%
Cc1ccc(NC(=O)c2cccc(N3CCCS3(=O)=O)c2)cc1C 5.72%
Cc1ccc(NC(=O)[C@H]2O[C@@H]3OC(C)(C)O[C@@H]3[C@H]3OC(C)(C)O[C@H]32)cc1F 3.78%
CSc1nc(Nc2ccc(C)cc2)c(C#N)c(-c2ccccc2)n1 -25.8%
CCS(=O)(=O)NCC(c1ccco1)N1CCN(c2ccccc2)CC1 (centres undefined) 3.2%
CCc1ccc(CNC(=O)CSc2c3c(nc4ccc(Cl)cc24)CCCC3)cc1 -5.68%
Cc1ccc(NC(=O)c2cc3nc(-c4ccc5c(c4)OCO5)cc(C(F)(F)F)n3n2)cc1Cl 6.03%
O=c1c(=O)n(-c2ccccc2)ccn1Cc1cccc(C(F)(F)F)c1 -5.3%
Cc1ccc(CSc2ncc(Cl)c(C(=O)Nc3nc4ccc(C)cc4s3)n2)cc1 -12.9%
Cc1ccc(N2CC(c3nnc(Cc4ccc(F)cc4)o3)CC2=O)cc1 (centres undefined) 14.2%
Cc1c(C(=O)Nc2ccccc2Cl)sc2ncnc(N(C)C3CCCCC3)c12 -7.95%
COc1cc(Cl)c(NC(=O)c2cc(CN3CCCC3)on2)c(OC)c1 16.6%
COc1ccc2c(c1)CC(C(=O)Nc1cccc(C)c1C)CO2 (centres undefined) -5.52%
Cc1oc(-c2ccccc2F)nc1CSCC(=O)NCc1ccccc1 8.66%
COc1ccc(Cn2ccnc2SCC(=O)NC2CCCC2)cc1 -5.41%
CC(CCc1ccccc1)NC(=O)Cn1c(=O)nc(-c2ccccc2F)c2cc(Cl)ccc21 (centres undefined) 37.4%
CCOC(=O)Cn1c(=O)n(C2CCCCC2)c2nc(-c3ccc(OCC)cc3)nc(C(N)=O)c21 -2.47%
COc1cccc(-n2ccnc2SCC(=O)Nc2ccc(Cl)c(Cl)c2)c1 -2.04%
COC(=O)c1ccc(NS(=O)(=O)c2c(C)nc3sccn3c2=O)cc1 0.537%
COCCOC(=O)c1c(C)oc2c1cc(NS(=O)(=O)c1ccc(Cl)c(C)c1)c1ccccc12 1.91%
Cc1nn(C)c2c1c(C(F)(F)F)cc(=O)n2C(C)C(=O)NCCc1ccc(Cl)cc1 (centres undefined) 0.987%
Cc1c(-c2cccc(NC(=O)c3ccc(F)c(F)c3)c2)nc2ncccn12 -3.84%
CCOC(=O)c1cnc2c(Cl)c(Cl)ccc2c1NCCN1CCOCC1 4.39%
CNS(=O)(=O)c1ccc(NC(=O)c2cnn3c(C(F)F)cc(-c4ccccc4)nc23)cc1 9.19%
O=c1c(-c2ccc(O)cc2)coc2cc(O[C@@H]3O[C@H](CO)[C@H](O)[C@H](O)[C@H]3O)ccc12 -16.3%
COc1ccc(OCc2ccc(-c3nc(C#N)c(NCc4ccccc4)o3)o2)cc1 -6.87%
Cc1ccc(Oc2coc3cc(OCC(=O)NC4CCCCC4)ccc3c2=O)cc1 0.637%
Cc1ccc2onc(CNC(=O)Nc3ccccc3C#N)c2c1 4.13%
O=C(NCC(c1ccc2c(c1)OCO2)N1CCN(c2ccc(F)cc2)CC1)c1cccc([N+](=O)[O-])c1 (centres undefined) -25.5%
CN(C1CCCCC1)S(=O)(=O)c1ccc2c(c1)c(=O)c(C(=O)NCc1ccccc1Cl)cn2C 3.64%
O=C(Nc1ccc(F)cc1Cl)C1CCN(c2ncnc3c2nc2n3CCCCC2)CC1 1.56%
CCc1ccc(NC(=O)C2CCCN(c3nn4cc(-c5ccc(OC)cc5)nc4s3)C2)cc1 (centres undefined) 0.993%
CCOc1ccc(C2C(C(=O)OC)=C(C)NC3=C2C(=O)c2ccccc23)cc1OC (centres undefined) -11.1%
CCc1ccccc1NC(=O)CSc1ncccc1C(=O)O 10.5%
COc1ccc2[nH]cc(CCNC(=O)Nc3cccc(F)c3)c2c1 2.82%
CC(=O)c1ccc(NS(=O)(=O)c2cnc(N)nc2)cc1 -9.34%
Cc1cccc(NC(=O)CSC2=Nc3ccccc3C3=NC(CCC(=O)NCc4ccc(F)cc4)C(=O)N23)c1 (centres undefined) 7.81%
CCOc1ccccc1NC(=O)c1cc2cc(C)ccc2n1C -11.8%
CC1CCN(S(=O)(=O)c2ccc(C(=O)Nc3nc4ccc(F)cc4s3)cc2)CC1 -3.82%
COC(=O)c1c(NC(=O)COc2c(C)cccc2C)sc2c1CCCC2 -2.77%
COc1ccccc1NC(=O)C1=C(C)Nc2nc(-c3ccco3)nn2C1c1ccccc1 (centres undefined) 6.35%
COc1ccc(-c2nc(SCC(=O)Nc3ccc4c(c3)OCO4)c(-c3ccccc3)[nH]2)cc1 -28.6%
COc1cccc(CNC(=O)c2ccc3c(c2)N(C)C(=O)C2CCCCN32)c1 (centres undefined) -6.25%
CCc1ccc(NC(=O)C2CCC(CNS(=O)(=O)c3cccs3)CC2)cc1 (centres undefined) -0.471%
CCC(=O)N1CCc2cc(Br)cc(S(=O)(=O)N3CCC(C(=O)N(CC)CC)CC3)c21 -6.39%
CCOc1ccc(-c2cc3nc(C4CCN(C(=O)OC(C)(C)C)CC4)c(C(=O)Nc4ccc(C)c(F)c4)cn3n2)cc1 -5.84%
CCOC(=O)c1c(NC(=O)c2cc(-c3ccc(Cl)cc3)on2)sc2c1CCCC2 12.9%
CC1CCN(c2cc3c(cc2F)c(=O)c(S(=O)(=O)c2ccc(Cl)cc2)cn3C)CC1 22%
COc1ccc(Nc2nc3c(S(=O)(=O)c4ccc(Br)cc4)nnn3c3ccsc23)c(OC)c1 8.87%
COc1ccc(-c2noc(N3CCC(C(=O)Nc4ccc(F)cc4Cl)CC3)n2)cc1 -13.7%
Cc1ccc2c(c1)C(=O)OC(C(=O)Nc1ncc(Cc3ccc(C(C)C)cc3)s1)C2 (centres undefined) 9.02%
Cc1ccc(Cl)cc1NS(=O)(=O)c1ccc2oc(=O)c3ncn(C)c3c2c1 -7.02%
COc1cccc(CNC(=O)C(CC(C)C)NS(=O)(=O)c2ccc3c(c2)oc(=O)n3C)c1 (centres undefined) -9.93%
Cc1c2cnn(CC(=O)N3CCCCC3)c(=O)c2c(C)n1Cc1ccc(F)cc1 -7.81%
CCC(Sc1nc2ncccc2[nH]1)C(=O)Nc1cccc(OC)c1 (centres undefined) 6.83%

outcome, inactive:
CCc1cccc(-n2nnc(-c3nsc(NC(=O)c4ccc(C)cc4)n3)c2C)c1
CCn1c(=O)c2cc(C(=O)N3CCN(c4cccc(OC)c4)CC3)sc2c2ccccc21
COc1ccc(Cl)cc1Nc1nc2ccc(C(=O)c3ccccc3)cc2n2cnnc12
Cc1ccc(NC(=O)CN(C)S(=O)(=O)c2cccc3cccnc23)cc1F
Cc1ccc2c(c1)C(c1ccccc1)N(C(=O)c1ccc(S(=O)(=O)N3CCCCC3)cc1)CC(=O)N2 (centres undefined)
O=C(NCCn1cc(SCc2ccccc2F)c2ccccc21)c1cccs1
O=C(NCc1ccc(F)cc1)c1ccc(CS(=O)Cc2ccc(Cl)cc2)o1 (centres undefined)
Oc1c(C(c2ccccc2)N2CCN(c3cccc(Cl)c3)CC2)sc2nc(-c3ccco3)nn12 (centres undefined)
O=C1COc2ccc(-c3cc(-c4ccc(F)cc4)c4c(n3)-c3cc(Cl)ccc3OC4)cc2N1
COc1ccccc1CNS(=O)(=O)c1cc(Br)cc2c1N(C(C)=O)C(C)C2 (centres undefined)
CC(C)c1ccc(NC(=O)C2CCCN(S(=O)(=O)c3cccc4nsnc34)C2)cc1 (centres undefined)
O=C(CSc1nccn1-c1ccc(Cl)cc1)Nc1cccc2ccccc12
COc1ccc(C2CC(=O)c3cnc4c(-c5ccccc5)c(C)nn4c3C2)cc1OC (centres undefined)
CCc1ccccc1NS(=O)(=O)c1ccc2oc(=O)c3ncn(C)c3c2c1
N#Cc1ccc(C(=O)Nc2ccccc2-c2nc3ccccc3s2)c(F)c1
Cc1ccc(NC(=O)c2c(C)oc3ccc(O)c(CN4CCCC4)c23)c(C)c1
COc1cccc(CNC(=O)CCc2c(C)nc3c(c2C)c(=O)n(C)c(=O)n3C)c1
COc1ccc(Nc2ncnc3c2c(-c2ccccc2)cn3-c2ccc(C)c(Cl)c2)cc1OC
CCOc1ccc(CN2C(=O)c3ccccc3Sc3ccc(C(=O)NCCc4ccccc4)cc32)cc1
Cc1ccc(-n2c3c(c(=O)[nH]c2=O)C(NS(=O)(=O)c2ccc(C)cc2)(C(F)(F)F)C(=O)N3)cc1 (centres undefined)
CC(=O)c1cccc(Nc2ncnc3c2cnn3C)c1
O=C(NCCc1ccc(Cl)cc1)c1ccc(Cn2c(=O)[nH]c3ccccc3c2=O)cc1
CCOc1ccccc1NC(=O)Cc1csc(COc2cccc(C)c2)n1
Cc1ccccc1NC(=O)c1c(NC(=O)c2ccncc2)sc2c1CCC(C(C)(C)C)C2 (centres undefined)
CCn1cc(C(=O)N2CCN(c3cc(Cl)ccc3C)CC2)c(=O)c2cc(S(=O)(=O)N3CCOCC3)ccc21
CC(C)CCNC(=O)c1cn(C)c2ccc(S(=O)(=O)N3CCCC3)cc2c1=O
CCN(C(=O)CCS(=O)(=O)c1cc2[nH]c(=O)c(=O)[nH]c2cc1C)c1ccccc1
CCOc1ccc(C(c2c(O)cc(C)n(CCOC)c2=O)N2CCN(c3ccccc3)CC2)cc1 (centres undefined)
CCCN(CCC)C(=O)Cn1c(=O)n(-c2cccc(OC)c2)c(=O)c2c(C)c(C(=O)N(C)C)sc21
Cc1ccc(N(CC(=O)N2CCN(c3ccc(Cl)cc3)CC2)S(=O)(=O)c2c(C)nn(C)c2C)cc1
Cc1ccc(-c2cn3nc(N4CCCC(C(=O)Nc5ccc(F)cc5)C4)sc3n2)cc1 (centres undefined)
